Test results reported in patent EP4119948A1, “METHOD FOR STRATIFICATION AND TREATMENT OF MULTIPLE SCLEROSIS” (Universität Zürich, priority 2021, dated 2023).
Not every detail of the peptide structures is certain; ends, links or a residue may be inferred. No end group written: not given here.

How the values were obtained:
Assay type in all cases: cell-based, human
[1] = system: CSF-infiltrating CD4+ T cells; assay: IFN-γ release (ELISA) of PHA-expanded CSF-infiltrating CD4+ T cells stimulated with peptides presented by autologous PBMCs; conditions: peptide 10 µM, 105 MS patients; for Positive wells % IFNγ release: well positive if IFN-γ ≥20 pg/ml, quadruplicates (420 wells per peptide); for Positive patients % IFNγ release: patient positive if mean IFN-γ of four wells ≥20 pg/ml and at least 3 of 4 wells positive
Description: (§1) PBMCs were freshly isolated using Ficoll (Eurobio, Germany) density gradient centrifugation. CSF-infiltrating CD4^+ T cells were expanded with PHA in a single round of stimulation using a previously reported protocol aimed to reduce TCR repertoire bias (Planas et al., […], Sci Transl Med, 10(462):eaat4301). 6 × 10^4 PHA-expanded CSF-infiltrating CD4^+ T cells were seeded in quadruplicate with 2 × 10^5 irradiated autologous PBMCs as antigen presenting cells and stimulated with peptides (Table 2) at a final concentration of 10 µM and with a T Cell Activation Kit (anti-CD3, anti-CD28, anti-CD2 beads) (Miltenyi Biotec) as positive control. Table 2. GDP-L-FS, myelin and CEF Peptides (amino acid sequences)
Release of IFN-γ was measured using the ELISA MAX™ Deluxe Set Human IFN-γ (Biolegend, San Diego, CA, USA) according to the manufacturer's instructions. A well was considered positive if IFN-γ ≥20 pg/ml and a patient was considered positive for a peptide if the mean IFN-γ of the four wells was ≥ 20 pg/ml and at least 3 of the 4 wells were positive.

[2] = system: CSF-infiltrating CD4+ T cells; assay: Proliferative response (3H-thymidine, stimulation index) of PHA-expanded CSF-infiltrating CD4+ T cells to peptides presented by autologous PBMCs; conditions: peptide 10 µM, 72 h, 105 MS patients; for Positive wells % Proliferation: well positive if SI ≥2, quadruplicates (420 wells per peptide); for Positive patients % Proliferation: patient positive if mean SI of four wells ≥2 and at least 3 of four wells SI ≥2
Description: as §1
Proliferation was measured 72 h after stimulation using 3H-thymidine (Hartmann Analytic, Braunschweig, Germany) as previously reported (Planas et al., 2018). The stimulation index of single wells (SI) was calculated as follows: SI = (cpm well with peptide) / (Mean cpm wells without peptide). A well was considered positive if SI ≥2.

[3] = system: CSF-infiltrating CD4+ T cells; assay: Classification of MS patients as responders by main reactivity in proliferation and/or IFN-γ release; conditions: 105 MS patients

Sequence | Positive wells % IFNγ release [1] | Positive patients % IFNγ release [1] | Positive wells % Proliferation [2] | Positive patients % Proliferation [2] | Patients classified as responders (main or only reactivity against the peptide(s)) [3]
AQGTLSKIFKLGGRDSRSGSPMARR [MBP (146-170), MBP 146-170] | 3.86% | 2.85% | 0.72% | 0.00% | 
EEDEVSIKEAAEAVV [GDP-L-FS (246-260), GDP-L-fucose synthase 246-260] | 8.85% | 8.57% | 6.90% | 4.76% | 
FRFTPFKQAVKETCA [GDP-L-FS (296-310), GDP-L-fucose synthase 296-310] | 12.65% | 11.42% | 6.43% | 4.76% | 
GQFRVIGPRHPIRALVGDEV [MOG (1-20), MOG 1-20] | 4.58% | 1.90% | 1.20% | 0.00% | 
HCLGKWLGHPDKFVGI [PLP (139-154), PLP 139-154] | 3.86% | 3.80% | 1.92% | 0.96% | 
KYLATASTMDHARHGFLPRH [MBP (13-32), MBP 13-32] | 4.34% | 1.90% | 0.72% | 0.00% | 
LSRFSWGAEGQRPGFGYGG [MBP (111-129), MBP 111-129] | 6.75% | 4.76% | 1.20% | 0.96% | 
MEVGWYRPPFSRVVHLYRNGK [MOG (35-55), MOG 35-55] | 13.49% | 12.38% | 3.61% | 1.92% | 10.4%
PHNSNFGYSYAKRMI [GDP-L-FS (136-150), GDP-L-fucose synthase 136-150] | 8.35% | 7.62% | 7.14% | 5.71% | 
TAQTRALFEKVQPTH [GDP-L-FS (51-65), GDP-L-fucose synthase 51-65] | 7.16% | 5.71% | 5.48% | 3.80% | 
YGCTFTAVIPTNVFG [GDP-L-FS (161-175), GDP-L-fucose synthase 161-175] | 6.92% | 5.71% | 7.38% | 6.66% | 
